From PMC4336329 (PLoS ONE, 2015)
In all, about 310,000 compounds went through this assay and about 14,000 (4.5%) showed an effect of 50% or more. Effects have a minus sign here. The list shows a part of the results.

What follows are molecules tested against human ether-à-go-go-related gene (hERG) potassium channel (human, UniProt Q12809) (assay: primary screen, population patch clamp on CHO cells stably expressing hERG).
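Also: peak tail current of the secondary pulse compared with the same well before compound.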

human ether-à-go-go-related gene (hERG) potassium channel, sequence (Q12809 whole entry, looked up): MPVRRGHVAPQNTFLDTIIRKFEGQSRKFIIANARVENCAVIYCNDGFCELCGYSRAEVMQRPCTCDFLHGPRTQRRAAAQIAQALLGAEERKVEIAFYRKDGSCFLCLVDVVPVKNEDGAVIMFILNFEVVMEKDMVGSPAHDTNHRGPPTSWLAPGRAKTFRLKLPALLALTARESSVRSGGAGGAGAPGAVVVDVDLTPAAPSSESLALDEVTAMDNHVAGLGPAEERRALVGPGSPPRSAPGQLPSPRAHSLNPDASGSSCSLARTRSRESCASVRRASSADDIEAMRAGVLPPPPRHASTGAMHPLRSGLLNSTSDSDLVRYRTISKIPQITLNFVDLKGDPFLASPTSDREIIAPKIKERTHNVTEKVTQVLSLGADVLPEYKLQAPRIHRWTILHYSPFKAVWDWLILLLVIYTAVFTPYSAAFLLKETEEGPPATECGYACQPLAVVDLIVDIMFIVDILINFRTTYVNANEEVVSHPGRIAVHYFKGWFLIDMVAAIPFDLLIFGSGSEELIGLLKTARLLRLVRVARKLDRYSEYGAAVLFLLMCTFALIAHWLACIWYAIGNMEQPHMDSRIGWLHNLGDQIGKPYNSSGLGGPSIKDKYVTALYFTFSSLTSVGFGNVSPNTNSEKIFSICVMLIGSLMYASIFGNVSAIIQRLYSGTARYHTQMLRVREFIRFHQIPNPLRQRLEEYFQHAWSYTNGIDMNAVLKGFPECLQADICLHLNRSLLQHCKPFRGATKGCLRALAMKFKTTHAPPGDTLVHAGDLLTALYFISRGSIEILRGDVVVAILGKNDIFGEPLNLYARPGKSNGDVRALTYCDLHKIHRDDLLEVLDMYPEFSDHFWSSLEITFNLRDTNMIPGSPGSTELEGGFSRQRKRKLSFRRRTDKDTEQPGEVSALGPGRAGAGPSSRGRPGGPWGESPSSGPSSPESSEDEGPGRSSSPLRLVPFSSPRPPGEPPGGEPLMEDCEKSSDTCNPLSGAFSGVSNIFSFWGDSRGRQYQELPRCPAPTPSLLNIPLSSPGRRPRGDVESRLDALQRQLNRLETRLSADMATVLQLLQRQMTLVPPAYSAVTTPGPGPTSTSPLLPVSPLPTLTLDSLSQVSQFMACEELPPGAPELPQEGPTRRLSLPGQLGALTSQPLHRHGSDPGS

SMILES | hERG current change (%, negative = inhibition) at 10uM
Cc1ccc(OCCCCNC(C)c2ccccc2)c(C)c1 (stereo not drawn) | 2.1%
Cc1cc(Cl)nc(-c2ccccc2O)n1 | 34.7%
CC(=O)c1ccc(NC(=O)C(C)Sc2nnnn2C)cc1 (stereo not drawn) | -5.7%
CCOCCCNC(=O)C(NC(=O)Cc1cccs1)c1ccc(OC)cc1 (stereo not drawn) | 13.2%
CCOC(=O)C1CCN(Cc2ccc(OCc3ccccc3)c(OC)c2)CC1.O=C(O)C(=O)O | -19.3%
CC1(C)Cc2c(sc(NC(=O)c3ccc(S(=O)(=O)N4CCCCCC4)cc3)c2C(N)=O)C(C)(C)N1 | -0.99%
CCC(C)NC(=O)CCn1ccc2cc(S(=O)(=O)N3CCCC3)ccc21 (stereo not drawn) | 12.3%
CCNc1nc(NCC)n2c(SCC(=O)Nc3ccccc3C(F)(F)F)nnc2n1 | -18.8%
CCc1nc2c3cnn(-c4cc(Cl)ccc4C)c3ncn2n1 | 5.24%
O=C(N/N=C/c1cc(Br)c(O)c(Br)c1O)c1ccc2c(c1)OCCO2 | -26.9%
C/C(=N\NC(=O)c1ccc(C(=O)N/N=C(\C)c2ccco2)o1)c1ccco1 | -2.05%
COc1ccc(C(=O)n2cnc3ccccc32)cc1Br | -2.21%
CSc1nn2cc(CCN3CCOCC3)c(-c3ccc(F)cc3)nc2c1C#N | -16.2%
CCc1ccc(CNC(=O)C2CCN(S(=O)(=O)N3CC(C)CC(C)C3)CC2)cc1 (stereo not drawn) | 13.3%
CCOC(=O)C1CCCN(CCC(=O)Nc2ccccc2)C1.Cl (stereo not drawn) | -9.04%
COC(=O)CSc1nnc(CNC(=O)c2ccc(OC)c(OC)c2)n1C | 3.33%
CCn1c(CCCOc2ccc(Cl)cc2Cl)nnc1SCC(=O)Nc1cccc(F)c1 | 23.4%
CC(=O)NCc1ccc(S(=O)(=O)N2CCN(c3ccccn3)CC2)cc1 | 15.5%
CCC(=O)N1CCN=C1SCc1ccc(F)cc1 | -0.768%
CC1CCN(S(=O)(=O)c2cccc3cccnc23)CC1 | 0.0673%
O=C(Nc1ccc(Oc2ccc(NC(=O)c3ccco3)c(NC(=O)c3ccco3)c2)cc1)c1ccco1 | -13.5%
C=CCOn1c(=O)c(-c2ccc(C)cc2)[n+]([O-])c2ccccc21 | 21.1%
COc1ccc(CN(C)C(C)C(=O)Nc2cccc3ccccc23)cc1 (stereo not drawn) | -14.1%
C=CCN(c1ccccc1)S(=O)(=O)c1cccc(C(=O)OCC(=O)NC2CC2)c1 | -8.05%
